Source: PubChem BioAssay AID488969 (Vanderbilt High Throughput Screening Facility, 2010)
Over roughly 110,000 compounds, “z-score” has its median near -0.1; the highest 2% begin near 2. This is one part of the list. Active and inactive are the calls of the source.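 Rule for the calls: active = z-score in the third read window above 3 or below -3; inactive = the rest.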

biological target: Metabotropic glutamate receptor 8 (Rattus norvegicus) (UniProt P70579); assay: mGluR8 Gi/Go-coupled signaling modulation – cell-based, rat, thallium flux, HTS, primary screen (AID 488969); conditions: HEK293 rat mGluR8, GIRK (G protein-gated inwardly rectifying potassium channel) thallium flux, FluoZin2; at 10 µM; stronger effect = higher value; submaximal glutamate (EC20) added with thallium
Chain of UniProt P70579 (P70579 whole entry, looked up): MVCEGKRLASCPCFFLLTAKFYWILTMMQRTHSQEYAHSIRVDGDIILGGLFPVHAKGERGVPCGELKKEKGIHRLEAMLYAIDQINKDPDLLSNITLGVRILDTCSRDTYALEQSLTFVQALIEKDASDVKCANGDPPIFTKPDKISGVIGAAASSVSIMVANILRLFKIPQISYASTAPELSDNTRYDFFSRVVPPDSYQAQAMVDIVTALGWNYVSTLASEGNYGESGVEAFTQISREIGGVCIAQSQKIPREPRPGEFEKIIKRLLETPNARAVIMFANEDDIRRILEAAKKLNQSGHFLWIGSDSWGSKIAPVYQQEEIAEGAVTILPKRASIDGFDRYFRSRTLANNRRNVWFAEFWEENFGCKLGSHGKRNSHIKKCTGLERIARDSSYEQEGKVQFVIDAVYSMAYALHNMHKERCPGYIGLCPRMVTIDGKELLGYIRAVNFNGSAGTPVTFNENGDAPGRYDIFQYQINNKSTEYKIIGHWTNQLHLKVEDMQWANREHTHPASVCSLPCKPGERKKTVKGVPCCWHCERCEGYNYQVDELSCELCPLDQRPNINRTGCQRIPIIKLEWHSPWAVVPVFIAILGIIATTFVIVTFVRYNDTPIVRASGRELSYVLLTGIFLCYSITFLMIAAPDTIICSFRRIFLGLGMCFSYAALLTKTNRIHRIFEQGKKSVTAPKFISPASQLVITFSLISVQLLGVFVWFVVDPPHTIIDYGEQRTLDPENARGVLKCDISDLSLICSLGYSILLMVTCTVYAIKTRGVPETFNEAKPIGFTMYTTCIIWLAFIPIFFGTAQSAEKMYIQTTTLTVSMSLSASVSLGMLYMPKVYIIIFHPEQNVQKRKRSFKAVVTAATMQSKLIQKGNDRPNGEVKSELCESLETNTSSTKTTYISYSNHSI

Structure (SMILES)	z-score
COc1ccc(-c2nc(NC(=O)CSc3nnc4ccccn34)ns2)cc1	-0.0274
CC(=O)c1cc2c(C)cc(=O)oc2cc1O	-0.155
COC(=O)Nc1nnc(Cc2ccc(Cl)cc2)s1	2.4
O=C(N/N=C/c1c[nH]c2c1ccc1ccccc12)c1ccc([N+](=O)[O-])cc1	-0.602
Cc1ccc(Nc2nnc(SCC(=O)Nc3ncc(S(=O)(=O)c4ccc([N+](=O)[O-])cc4)s3)s2)cc1	-0.282
Cc1noc(C)c1COC(=O)c1ccc2c(c1)OCCO2	-0.998
COC(=O)Nc1nc(C)c(C(=O)c2ccccc2)s1	1.66
CCCCn1c(CNC(=O)C(C)(C)C)nc2ccccc21	-0.464
O=C(COC(=O)c1ccc(Br)o1)NCc1cccs1	-0.099
COc1ccnc(N2CCN(c3ccc(Cl)cc3)CC2)c1C#N	-0.323
Cc1ccc2c(c1)N(CC(=O)N1CCCc3ccccc31)C(=O)C(C)O2 (stereo not drawn)	-0.363
CCC(=O)Nc1ccc(C(=O)CSc2nnc(-c3ccc(O)cc3)n2CC2CCCO2)cc1 (stereo not drawn)	0.865
O=C(Nc1cccc(C(F)(F)F)c1)c1ccc2nc(N3C(=O)CCC3=O)sc2c1	-0.134
Cn1cc(Br)c(C(=O)NNC(=O)c2ccc(Cl)cc2)n1	0.00226
CCOC(=O)C1CCCN(CC(O)COc2cccc(C)c2)C1 (stereo not drawn)	-0.189
CCOC(=O)C1CCN(C(=O)CCN2C(=O)C3C4C=CC(C4)C3C2=O)CC1 (stereo not drawn)	0.00852
Clc1ccc(-c2nnc(SCc3nc(-c4ccccc4)no3)o2)cc1	-0.0626
CCc1ccc(N/C(SC)=C(/C#N)C(N)=O)cc1	0.119
CCOc1ccc(/C=C/C(=O)NCc2ccccc2)cc1	-0.184
Cc1nc(NC(=O)COc2ccc(Cl)cc2)sc1C(=O)N(C)C	-0.121
CCn1nc(C)c(/C=N\NC(=O)c2ccc3c(c2)OCO3)c1C	-0.209
CN(C)C(=O)c1cn(-c2ccccc2)nc1-c1cccs1	0.354

Structure (SMILES)	z-score
CCC(CC)c1nnc(NC(=O)c2nc3nc(C)cc(C)n3n2)s1	-0.0644
COc1ccc(NC(=O)c2cc(C(C)C)on2)c(OC)c1	0.43
O=C(OCC1OC(n2ccc(=O)[nH]c2=O)C(O)C1OC(=O)c1ccccc1)c1ccccc1 (stereo not drawn)	-0.354
Cc1noc(C)c1C(=O)N1CCN(CCc2ccccc2)CC1	-0.189
COc1cc(C(=S)N2CCOCC2)ccc1OC(=O)c1cc([N+](=O)[O-])cc([N+](=O)[O-])c1	-0.0466
CCC(=O)NC(=S)Nc1ccc(-c2nc3ccccc3s2)cc1	-0.031
CSc1nnc2c3ccccc3n(Cc3ccccc3)c2n1	0.241
O=C(CNS(=O)(=O)c1ccc(Br)cc1)N1CCOCC1	0.165
CSc1ccccc1NC(=O)COc1ccc(S(=O)(=O)N2CCCC2)cc1	-0.177
CCOC(=O)c1c(C)n(C)c2ccc(OCC(O)Cn3c(C)nc4ccccc43)cc12 (stereo not drawn)	-2.32
COc1ccc(CN(C(=O)c2oc3ccccc3c2C)C2CCS(=O)(=O)C2)cc1OC (stereo not drawn)	-0.16
O=C(O)Cn1cc(C(=S)N2CCOCC2)c2ccccc21	-0.136
CSC1CCCCC1(O)CSc1nc2ccccc2o1 (stereo not drawn)	-0.0413
CC(=O)Nc1ccc(S(=O)(=O)N2CCN=C2C)cc1	0.0196
N#Cc1cc([N+](=O)[O-])ccc1Oc1cccc(/C=N/NC(=O)c2cccc(Cl)c2)c1	-0.277
COC(=O)c1ccc(NC(C(=O)OC)C(C)C)c([N+](=O)[O-])c1 (stereo not drawn)	-0.261
CN(Cc1ccccc1)S(=O)(=O)c1ccc(OCC(=O)N2CCOCC2)cc1	0.0571
Cc1cccc(/C=N/NC(=O)c2cc(-c3cccnc3)nc3c2c(C)nn3-c2ccccc2)c1	0.217
N#Cc1c2n(c3c(=O)n(Cc4ccccc4Cl)cnc13)CCCC2	-0.509
CC(C)c1ccc(NC(=O)CSc2nc(-c3ccccc3F)nc3nc[nH]c23)cc1	-0.223
COc1cccc(C2CC(c3ccccc3Cl)n3nc(N)nc3N2)c1 (stereo not drawn)	-1.36
Cc1cc(C(=O)COC(=O)CN(C)S(=O)(=O)c2ccc(Cl)cc2)c(C)n1CC1CCCO1 (stereo not drawn)	-0.382

Structure (SMILES)	z-score
CC(C)CCNc1nc(N)c([N+](=O)[O-])c(NCC2CCCO2)n1 (stereo not drawn)	-0.0499
CC(C)(C)c1ccc(C(=O)NCC(=O)OCC(=O)Nc2ccccc2[N+](=O)[O-])cc1	-0.147
CC(NC(=O)Nn1cnnc1)(C(F)(F)F)C(F)(F)F	0.0258
Cc1ccc(SC(C)C(=O)Nc2ncn[nH]2)cc1 (stereo not drawn)	-0.0401
CCOC(=O)C1CCN(c2ncnc3c2oc2ccc(Cl)cc23)CC1	-0.48
Cn1cc(CNC(=O)C23CC4CC(CC(C4)C2)C3)cn1	-0.188
Cc1ccc(NCCC(=O)c2cccs2)cc1Cl	0.494
C=CCOc1ccccc1/C=c1\sc2nc(-c3oc4ccccc4c3C)nn2c1=O	-0.459
O=C(COC(=O)Cc1cccs1)Nc1ccc(F)c(F)c1F	-0.0862
CCCOc1ccc(C(=O)NCc2cccnc2)cc1	0.114
C=CCn1c(SCCOc2ccc(OC)cc2)nnc1C(C)NC(=O)c1ccc(OC)cc1 (stereo not drawn)	0.609
CCOc1ccc(-c2cc(N)n(S(=O)(=O)c3ccc(OC)cc3)n2)cc1	-0.00856
Cc1ccc(OCCNS(=O)(=O)c2ccc(N3CCCC3=O)cc2)cc1	-0.264
COc1ccccc1-c1cc(C(F)(F)F)nc(N2CCCC2)n1	-0.172
COc1ccc(C(=O)NNC(=O)CSc2nnc(COc3ccccc3)n2C)cc1	-0.419
COc1ccc(NC(=O)c2ccc3ccccc3n2)cc1S(=O)(=O)Nc1ccccc1Cl	0.0764
COc1ccccc1OCc1ccc(C(=O)NN)cc1	-0.037
Cc1ccc(S(=O)(=O)NCCOc2nc(N(C)C)nc(N3CCOCC3)n2)cc1	1.62
Cc1ccccc1OCc1nnc(SCC(=O)Nc2c(C)n(C)n(-c3ccccc3)c2=O)n1-c1ccccc1	-0.613
O=C(COC(=O)CCc1c[nH]c2ccccc12)NC1CCS(=O)(=O)C1 (stereo not drawn)	0.342
O=C(Nc1ccon1)C1CCN(S(=O)(=O)c2cccs2)CC1	0.029
CCCCNS(=O)(=O)c1ccc(OC)c(C)c1	0.142

Structure (SMILES)	z-score
CSCC[C@H](NC(=O)c1ccc(Cl)c([N+](=O)[O-])c1)c1nc2ccccc2[nH]1	-0.0228
CC1(C)CC(=O)c2cc(C(=O)NCc3ccco3)c(=O)n(-c3ccccc3)c2C1	-0.132
c1ccc(-c2cc(-c3ccncc3)nc3ccc4ccccc4c23)cc1	0.335
COC(=O)C1=C(C(=O)OC)SC2(S1)C(C(=O)OC)=C(C(=O)OC)SC1=C2c2cc(C)cc(C)c2NC1(C)C	-0.12
CC(NC(=O)c1ccccc1O)c1ccccc1 (stereo not drawn)	0.207
C=CCNC(=S)NCC1COc2ccccc2O1 (stereo not drawn)	-0.0688
CC(=O)NCCC(Cc1ccccc1)c1ccco1 (stereo not drawn)	-0.0483
CCOC(=O)CSc1nnc(NC(=O)c2cccc(S(=O)(=O)N3CCCC3)c2)s1	0.542
Cc1nc(Nc2ccc(S(=O)(=O)N3CCCC3)cc2)c2nnn(Cc3ccccc3)c2n1	0.261
COc1ccccc1NC(=O)c1sc2ncn(Cc3ccc(C)cc3)c(=O)c2c1C	-0.249
COC(=O)COc1ccc(S(=O)(=O)Nc2ccc3c(c2)OCO3)cc1	-0.955
O=C(NCCN1CCN(c2ccccc2)CC1)C1CCN(S(=O)(=O)c2cccc3nonc23)CC1	-0.208
CCOC(=O)c1cccc(NC(=O)CNC(=O)C2CCCCC2)c1	1.68
Cc1ccc(C2=NNC(c3ccc(Cl)cc3)=Nc3ccccc32)o1	-0.31
Cc1cccc(C2(c3cccc(C)c3)CC2C(=O)Nc2ccc([N+](=O)[O-])cc2O)c1 (stereo not drawn)	-0.0299
Nc1cc2c(cc1[N+](=O)[O-])OCCO2	-0.0875
COP(=O)(OC)c1nc(-c2cccc3ccccc23)oc1NCc1ccccc1	-0.666
COCCN(C(=O)CN1CCCc2ccccc21)c1c(N)n(Cc2ccccc2)c(=O)[nH]c1=O	-0.231
O=C(Cn1c(C(F)(F)F)nc2ccccc21)NCCN1CCCC1	0.278
O=C(c1cc(Cl)c(=O)n(Cc2ccc(Cl)cc2)c1)N1CCOCC1	-0.00215
Cc1ccc(-c2nnn(CC(=O)N(CC(=O)NC3CCCCC3)c3cnc4ccccc4c3)n2)o1	-0.701
O=C(COc1ccccc1)NCC(=O)N/N=C/c1ccccc1	-0.398

Structure (SMILES)	z-score
Cc1cc(C)n(Cc2ccc(NC(=O)c3nn(C)cc3[N+](=O)[O-])cc2)n1	-0.0262
Cc1nn2cc(-c3ccc(-c4ccccc4)cc3)nc2s1	0.815
Cc1n[nH]c(=O)nc1N1CCN(c2ccccc2)CC1	0.202
Cc1ccc(C)c(N2CCN(C(=O)CN(C)S(=O)(=O)c3cnc[nH]3)CC2)c1	-0.0229
O=C(O)c1cc(NS(=O)(=O)c2ccc(N3CCOCC3)c([N+](=O)[O-])c2)cc(C(=O)O)c1	-0.0533
CC(NC(=O)Cn1cc(C(=O)C2CC2)c2ccccc21)c1ccccc1 (stereo not drawn)	0.266
O=C(c1ccco1)N1CCN(C(=O)c2cc(-c3ccncc3)nc3ccc(Br)cc23)CC1	-0.141
O=C(CSc1ccc(Cl)cc1)N1CCOCC1	0.1
O=S(=O)(c1ccc2c(c1)oc1ccccc12)N1CCOCC1	-0.33
CCOC(=O)c1nc(N)c(C(=O)OCC)[nH]1	-0.0439
CCCSc1nnc2nc(C)cc(C)n12	-0.0915
CCCCn1c(SCC(=O)Nc2ccc(OC)cc2)nc2ccc(N3CCOCC3)cc2c1=O	active: 4.35
CCN(CCO)Cc1cn[nH]c1-c1ccc(C)c(C)c1	0.132
O=C(Cn1cnc([N+](=O)[O-])n1)N/N=C/c1ccccc1O	0.165
C/C(=N\Oc1cccc(F)n1)c1ccc(Cl)cc1Cl	0.444
CCOC(=O)Nc1sc(C(=O)N(CC)CC)c(C)c1C(=O)OCC	-0.929
Cn1c(NC(=O)c2ccccc2NC(=O)C(C)(C)C)nc2ccccc21	-0.0885
Cc1cc(C2(c3cc(C)c(NC(=O)CN4CCOCC4)c(C)c3)CCCCC2)cc(C)c1NC(=O)CN1CCOCC1	-0.355
Cc1ccc(-c2csc3ncnc(N4CCc5ccccc5C4)c23)cc1	-0.0151
O=C(CN1CCCC1)NCC1(c2ccccc2)CCOCC1	0.204
